This assay has as its target BubR1 (human (endogenous in HeLa)) (UniProt O60566). Put plainly: co-IP; as a1, the cells treated with the GSK3 inhibitor SB415286 (SB) and MG132 after Taxol; Mad2/BubR1 band intensities by ImageJ from three separate experiments, against DMSO control.
UniProt O60566, sequence (O60566 whole entry): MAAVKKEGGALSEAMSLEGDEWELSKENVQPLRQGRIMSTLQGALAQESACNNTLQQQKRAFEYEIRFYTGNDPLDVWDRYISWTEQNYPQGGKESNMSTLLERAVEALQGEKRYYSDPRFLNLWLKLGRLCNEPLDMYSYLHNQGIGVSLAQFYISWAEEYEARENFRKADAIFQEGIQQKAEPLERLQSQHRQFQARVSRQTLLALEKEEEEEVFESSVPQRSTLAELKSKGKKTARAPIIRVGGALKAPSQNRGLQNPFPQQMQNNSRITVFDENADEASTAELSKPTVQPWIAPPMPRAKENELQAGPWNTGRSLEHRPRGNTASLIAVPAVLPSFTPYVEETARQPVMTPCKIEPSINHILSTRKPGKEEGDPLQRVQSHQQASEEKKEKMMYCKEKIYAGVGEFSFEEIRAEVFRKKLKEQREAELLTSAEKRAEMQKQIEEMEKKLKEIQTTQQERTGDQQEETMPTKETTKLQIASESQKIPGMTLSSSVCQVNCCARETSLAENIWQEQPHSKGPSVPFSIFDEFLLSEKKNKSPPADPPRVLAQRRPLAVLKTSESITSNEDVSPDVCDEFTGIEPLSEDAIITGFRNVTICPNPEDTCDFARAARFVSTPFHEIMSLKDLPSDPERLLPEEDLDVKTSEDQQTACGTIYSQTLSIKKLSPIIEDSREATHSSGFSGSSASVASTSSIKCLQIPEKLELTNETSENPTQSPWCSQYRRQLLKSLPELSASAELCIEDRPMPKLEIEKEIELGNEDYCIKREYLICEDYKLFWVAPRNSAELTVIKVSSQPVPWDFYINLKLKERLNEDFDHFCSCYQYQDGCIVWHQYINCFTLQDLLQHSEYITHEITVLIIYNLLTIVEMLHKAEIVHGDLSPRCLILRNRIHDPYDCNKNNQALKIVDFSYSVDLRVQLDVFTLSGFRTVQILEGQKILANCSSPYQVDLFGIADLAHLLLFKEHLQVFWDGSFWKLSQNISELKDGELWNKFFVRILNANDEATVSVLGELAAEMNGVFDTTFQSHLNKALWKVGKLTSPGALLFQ

“Mad2 (a stretch of the chain, sequence not shown) (natural protein; other documents disagree on this pair)”: the percent decrease of the Mad2/BubR1 ratio in SB415286-treated cells against DMSO control was 75%.

These data come from paper PMC6155330.
